# Source: PubChem BioAssay AID1345082 (National Center for Advancing Translational Sciences (NCATS), 2018)
# About 4,000 (4.3%) of roughly 94,000 compounds were called active. Inconclusive results, whose numbers are uncertain, are shown with a selection of clear calls. Calls follow the shape of the dose curve; as a rule, active = well fitted inhibition curve with a large enough effect; inconclusive = small, poorly fitted or top-dose-only effect; inactive = no such curve, though single readings can be large or run the other way. A potency beside an inconclusive call is a rough fit, not a confirmed value.
# Assay: Cytotoxic Profiling in NIH 3T3 Cell Line of Diverse Libraries Using Quantitative High-Throughput Screening; also: nearly all actives have a fitted effect of over 55% in size
# Settings: NIH 3T3 viability, CellTiter-Glo ATP luminescence, 48-72 h; series mostly up to 96.7 µM
# Procedure, shortened: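 First NIH 3T3 cells are plated at 400 cells/well; next compound is pinned in; then plates incubate 48 or 72 hr at 37 °C; finally CellTiter-Glo is added and luminescence read after 10 min.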
# Potency is read from the fitted curve at half-maximal effect; tags tell the direction and shape of the fitted curve.
row,Structure (SMILES),Potency
1,O=C(Nc1ccc2c(N3CCCC3)ncnc2c1)c1cc(F)ccc1F,"inconclusive: 5.62 µM [inhibitor, full curve, poor fit]"
2,O=C1COCC2(CN1)CN(Cc1ccc(Cl)cc1)C2,inactive
3,CCC(C)C(=O)N1CCC2(CC1)NCCc1c2[nH]c2ccccc12 (stereo not drawn),inactive
4,Cc1ccccc1-c1onc(C)c1C(=O)NCc1ccc(F)cc1F,inactive
5,Cc1ccc(C)c(CN2C(=O)NC3(CCN(C(=O)Cc4cccc(F)c4)CC3)C2=O)c1,"inconclusive: 44.7 µM [inhibitor, partial curve, poor fit]"
6,O=C([C@@H]1C[C@H](Oc2cccnc2)CN1S(=O)(=O)Cc1ccccc1)N1CCOCC1,inactive
7,COc1ccc(Nc2ccnc(N3CCCC(C(=O)NCc4cccc(OC)c4)C3)n2)cc1 (stereo not drawn),active: 35.5 µM
8,O=C(C1CCCN1C(=O)c1ccc(Cl)nc1)N1CCC(N2CCCC2=O)CC1 (stereo not drawn),inactive
9,CCc1c(C)nc(C)nc1N1CCN(C)C2(CCC(=O)N(CC)CC2)C1 (stereo not drawn),inactive
10,COc1ccc(-c2ccc3nnc(CNC(=O)CCc4ccccc4)n3n2)cc1,inactive
11,CC1Oc2ccc(NC(=O)c3ccc([N+](=O)[O-])cc3)cc2CN(Cc2ccccc2F)C1=O (stereo not drawn),"inconclusive: 44.7 µM [inhibitor, partial curve, poor fit]"
12,CC1=C[C@@H](CNC(=O)CCCC(=O)O)[C@H](C(C)C)C[C@H]1Cc1nc2ccccc2n1C,inactive
13,O=C(C1CCCC1)N1CC(N(Cc2ccccn2)C(=O)Nc2ccccc2)C1,"inconclusive: 63.1 µM [inhibitor, partial curve, poor fit]"
14,COCCn1c(C)nnc1-c1cc(-c2cccc(N(C)C)c2)ccn1,"inconclusive: 100 µM [inhibitor, single point]"
15,COc1ccc(C(=O)Nc2ccc3c(N4CCCCC4)ncnc3c2)cc1,"inconclusive: 44.7 µM [inhibitor, partial curve, poor fit]"
16,CN1CC(=O)N(c2ccc(Cl)cc2)Cc2c1ncnc2N1CCC(c2ccccc2)CC1,"inconclusive: 39.8 µM [inhibitor, partial curve, poor fit]"
17,O=C(CC1CCCCC1)N1CCC(Cc2nc(-c3ccccc3)no2)CC1,"inconclusive: 56.2 µM [inhibitor, partial curve, poor fit]"
18,CC(=O)Nc1ccc(CN2CCCC3(Cc4ccccc4CNC3=O)C2)cc1 (stereo not drawn),inactive
19,COc1cc(OC)c(CNC(=O)c2c(C)noc2-c2cccs2)c(OC)c1,"inconclusive: 50.1 µM [inhibitor, partial curve, poor fit]"
20,CC(=O)c1cc(CN(CCc2ccccc2)CC2CCCN(C)C2)cs1 (stereo not drawn),"inconclusive: 79.4 µM [inhibitor, partial curve, poor fit]"
21,FC(F)(F)c1ccc(CN2CCCC3(CC(Cc4ccccc4)=NO3)C2)cc1 (stereo not drawn),"inconclusive: 50.1 µM [inhibitor, partial curve, poor fit]"
22,COc1ccc(NC(=O)c2cnc3n[nH]c(-c4ccc(OC)cc4C)c3n2)cc1,active: 44.7 µM

row,Structure (SMILES),Potency
1,COc1cccc(C(=O)NCCC2CCN(C(=O)Nc3cccc(F)c3)CC2)c1,"inconclusive: 50.1 µM [inhibitor, partial curve, poor fit]"
2,COc1ccccc1CNC(=O)c1c(OCC(C)C)cc(=O)n2c1CCCCC2,inactive
3,COc1cccc(NC(=O)c2ccc3c(c2)C(O)CCCCCN3C)c1 (stereo not drawn),"inconclusive: 44.7 µM [inhibitor, partial curve, poor fit]"
4,COCCNC(=O)c1ccc(OC2CCN(Cc3cnc(SC)nc3)CC2)c(Cl)c1,"inconclusive: 11.2 µM [inhibitor, full curve, poor fit]"
5,CC(=O)N1Cc2ccccc2CC2(CCCN(CCc3ccccc3)C2)C1 (stereo not drawn),inactive
6,CC(C)(Oc1nn(CCN2CCOCC2)c2ccccc12)C(=O)NCCc1ccccc1,inactive
7,O=C1N[C@H](CC(=O)N2CCN(Cc3ccc4c(c3)OCO4)CC2)C(=O)Nc2ccccc21,inactive
8,Cc1cc(NC(=O)c2ccc(Cn3ccn4nc5c(c4c3=O)CCCC5)cc2)ccc1F,"inconclusive: 50.1 µM [inhibitor, partial curve, poor fit]"
9,COc1cc(NC(=O)CCN2CCCCCC2=O)ccc1NC(=O)C(C)(C)C,inactive
10,CN(C)c1ccc(-c2nnc([C@H]3CCN(Cc4ccccc4)C3)o2)cc1,"inconclusive: 35.5 µM [inhibitor, partial curve, poor fit]"
11,COc1cccc(-c2ccc(CN3CCCC3C(=O)NCc3ccccc3F)cc2)c1 (stereo not drawn),"inconclusive: 44.7 µM [inhibitor, partial curve, poor fit]"
12,CCOCc1nc(C2CCCN(C(=O)c3ccc(F)c(F)c3)C2)no1 (stereo not drawn),inactive
13,CN(Cc1ccccc1)Cc1cn([C@H]2CO[C@H]3[C@@H]2OC[C@@H]3NS(=O)(=O)c2cccc3cccnc23)nn1,inactive
14,COc1cc(F)ccc1-c1nc(-c2c(C)noc2C)cc2[nH]c(C)cc12,active: 35.5 µM
15,O=C(NC1CCCCC1)c1cc(-c2cc(Cl)cc(Cl)c2)c2nncn2n1,"inconclusive: 79.4 µM [inhibitor, partial curve, poor fit]"
16,CCOC(=O)C1CCN(C(=O)c2ccc(-c3ccc(N4CCCCCC4)nc3)cc2)CC1,"inconclusive: 44.7 µM [inhibitor, partial curve, poor fit]"
17,Cc1ccc(-c2nc(CN3CCCC3=O)no2)cc1,inactive
18,COc1ccc(CN(C)C2CCc3nn(C)c(=O)n3CC2)cc1Cn1cccn1 (stereo not drawn),inactive
19,O=C(Nc1ccc([C@H]2OCC(=O)N(Cc3ccc(F)cc3)[C@@H]2CO)cc1)c1cccc(F)c1,"inconclusive: 50.1 µM [inhibitor, partial curve, poor fit]"
20,Cc1noc(C)c1-c1cc2cc(C(C)C)oc2c(N2CCS(=O)(=O)CC2)n1,"inconclusive: 50.1 µM [inhibitor, partial curve, poor fit]"
21,Cc1nc2c(c(NC3CC3)n1)CCN(C(=O)CCc1cccnc1)CC2,"inconclusive: 89.1 µM [inhibitor, single point]"
